Patent US12551573B2, “Compositions and methods for the targeting of PCSK9” (Scribe Therapeutics Inc., priority 2022, dated 2026)
Read-outs that look alike come from different tables or passages of the source.

System: HBEGF locus
Assay type: cell-based, human
Details: high-throughput screen of dXR repression of the HBEGF gene
[1] = abundance of each domain in the library before vs after diphtheria toxin selection, listed domains met p-value <0.01 and log2(fold change) >2
[2] = change in abundance of each domain in the library before and after diphtheria toxin selection

B1: DOMAIN_25106 (protein, listed as Canis lupus)
chain: AQGQVNFEDVAVYFSPEEWGLLDEAQRLLYRDVMLENLALMASLGYESSMSHGFASLELGSKPWGSDWADVTPARTRDTQG
Log2 (fold change) [1]: 2.8622

B2: DOMAIN_25126 (protein)
chain: HQISVTFDDVALDFTQEEWILLDLSQRNLYRNVMLENYQNLVTVEYQLSKPKLIAWLEQQELRAVEQGILQEWETGLQTKG
modifications: Puma concolor
Log2 (fold change) [1]: 2.1478

B3: DOMAIN_25128 (protein, listed as Sapajus apella)
chain: DSVAFEDVAINFTCEEWALLGPSQKSLYRDVMQETIRNLDCIGMKWQNLDIEEDEYKNPGRNLRCFMVERSCEIKDNSQCG
Log2 (fold change) [1]: 2.588

B4: DOMAIN_25131 (protein, listed as Sapajus apella)
chain: LQEPLEFMDVAIEFSLEEWHCLDTAQRNLYRDVMLENYRNLVFLGIVVSKPDLITWLEQGKKPLTVKRRGMIAAPPGMSSH
Log2 (fold change) [1]: 2.592

B5: DOMAIN_25146 (protein, listed as Macaca nemestrina)
chain: MVSFEDVAVLLSQEEWDCLIPAQRGLYRDVMLETYGNLVSLGLQASKPDVISRLEQGDKPWTPHILRTQRSWSWRHKRECY
Log2 (fold change) [1]: 3.629

B6: DOMAIN_25150 (protein, listed as Muntiacus reevesi)
chain: LSTQLTVEDVDIKFTPEEWECLDPAQRTLYRDVMEETYRNLLSVGIGPRLPDCSSCIHMTKKLQAKENSGKGEILQRVMCG
Log2 (fold change) [1]: 3.147

B7: DOMAIN_812 (protein, listed as Pan paniscus)
chain: AEITLMNQAQDSRSILFQESVTFEDVAVNFTNREWQCLTYAQRHLYKDVMLENYGNMVSLGFPFPKPPLISHLEREVDPCV
Log2 (fold change) [2]: 2.8201

B8: DOMAIN_25157 (protein, listed as Myotis brandtii)
chain: DKTIIAFGDVAVAFTEREWKLLSPAQRTLYRDVMLETYSHLVSLGIAFSKPKFITQLEQGDEPWREESECLLELCPEPRTE
Log2 (fold change) [1]: 3.0902

B9: DOMAIN_25194 (protein, listed as Macaca nemestrina)
chain: SQEPVTFADVAVVFTPEEWVFLDSTQRSLYRDVMLENYRNLASVADQLCKPNASSYLEQRGEQWTTDRGILADTCAEPQLQ
Log2 (fold change) [1]: 2.4613

B10: DOMAIN_25204 (protein, listed as Panthera pardus)
chain: AHRSLMFSDVSIVFSQEEWEYLDLEQRDLYRDVMLENYSNLVSLGCFISKPDVISLLEQGKEPWKVVRKGRRRYAAPMSIA
Log2 (fold change) [1]: 2.7595

B11: DOMAIN_25234 (protein, listed as Saimiri boliviensis)
chain: PQVSLTFEDVAVLFTRDEWRKLAPSQRNLYRDVMLENYRNLVSLGLPFTKPKVISLLQQGEDPWKVEKDSSGGCSPGCKSN
Log2 (fold change) [1]: 2.743

B12: DOMAIN_25334 (protein, listed as Phascolarctos cinereus)
chain: IQELVTFKDVAVDFTQEEWGLLNNPQKELYKEVMLENAQNMLSLGLPVPREDLFSYFEEREAPWLLEQEGLRSCCAEREIR
Log2 (fold change) [1]: 2.7501

B13: DOMAIN_25384 (protein, listed as Rhinolophus ferrumequinum)
chain: DHELVTFRDVIINFSQDEWEYLNSAQRDLYWDVMMENYSNLVSLGCFISKPDVISLLEQGKEPWKVVRKERRRYPDLETRH
Log2 (fold change) [1]: 3.5139

B14: DOMAIN_25389 (protein, listed as Ursus maritimus)
chain: SQEPVTFEDVAVYFTQNQWASLDPTQRALYREVMLENYANITSLAFPFPKPDLILQLERGEARWGLDPWIAIEGEALGGVH
Log2 (fold change) [1]: 3.0814

B15: DOMAIN_25400 (protein, listed as Lynx canadensis)
chain: FQELVTFRDVAIDFSRQEWEYLDSVQRDLYRDVMLENYRNLVSLGHSISKPDVVDLLEQGKEPWMILREETQRQYTDLDLH
Log2 (fold change) [1]: 2.2285

B16: DOMAIN_25410 (protein)
chain: SYGSLSFEDVTVGFSQEEWQHLDPAQRTLYRDVMLENYSHLVAVGCCVPKPDVIFRLEQGQQPWLIEEESLDQSCPEVCRV
modifications: Puma concolor
Log2 (fold change) [1]: 2.8699

B17: DOMAIN_888 (protein, listed as Pan paniscus)
chain: MDMAQEPVTFRDVAIYFSREEWACLEPSQRTLYRDVMLDNFSSVAALGFCSPRPDLVSRLEQWEEPWVEDRERPELQAVRR
Log2 (fold change) [2]: 2.8951

B18: DOMAIN_25443 (protein, listed as Muntiacus reevesi)
chain: QAGSDLFRDVAIVFSQEEWEQLAPTQRDLYRDVMLETYSNLVSLGLAVSKPDVIAFLEQGREPWTVEGVATGGLCPVLKSR
Log2 (fold change) [1]: 3.2531

B19: DOMAIN_25534 (protein, listed as Ursus maritimus)
chain: LQGLLTFGDVAIEFSQEEWRCLSHTQRELYRDVMLENYGHLLFLGLTVSKPDLVSFLEQRKEPWDEKRNKTAGFDASRWE
Log2 (fold change) [1]: 2.2698

B20: DOMAIN_25554 (protein, listed as Panthera pardus)
chain: SSQTLLTFRDVAIEFSQEEWGCLNHSQRELYRDVMLETYGHLLFLGLVSKPDLVIVLEQKKELWGVKRKETVASHPAVSSQ
Log2 (fold change) [1]: 3.0101

B21: DOMAIN_25564 (protein, listed as Muntiacus reevesi)
chain: RKRGSLTLEDVAVDFTWEEWQLLAPAQKALYQEVMLENYGNLVFVGYQASKPAALSRLERGEPWPVEDEVHSQLCPEMRKD
Log2 (fold change) [1]: 3.4378

B22: DOMAIN_25623 (protein, listed as Ursus maritimus)
chain: RPGAVSFADVAVYFSPEEWGCLRPAQRALYRDVMRETYGHLGALGFAGPKPALISWLERKKEVWSPEAEDPEAGARHPGSG
Log2 (fold change) [1]: 3.4886

B23: DOMAIN_25628 (protein, listed as Rhinopithecus bieti)
chain: PLESVTFKDVAIDFTLEEWRLMDPTQRNLHKDVMLENYRNLVSLGLAVSKPDMISHLENGKGPWVTMRGISRIPYPDIEPK
Log2 (fold change) [1]: 2.8332

B24: DOMAIN_25649 (protein)
chain: AQESVMFSDVSIDFSQEEWECLNDDQRDLYRDVMLENYSHLVSMGHSVSKPDVISFLEQGKEPWLVDRELTRDHWPVLESR
modifications: Ursus arctos
Log2 (fold change) [1]: 3.6884

B25: DOMAIN_893 (protein, listed as Pan paniscus)
chain: MAALFLSAPPQAEVTFEDVAVYLSREEWGRLGPAQRGLYRDVMLETYGNLVSLGVGPAGPKPGVISQLERGDEPWVLDVQG
Log2 (fold change) [2]: 2.7511

B26: DOMAIN_25726 (protein)
chain: SQGLVTFEDVAVYFSLEEWQRLDAAQRDLYKEVMQENYGILVSLGYPIPKPDLIFRLEQGEEPWVPDSPSPEEGDIVTGVY
modifications: Pteropus alecto
Log2 (fold change) [1]: 2.8203

B27: DOMAIN_25741 (protein, listed as Sapajus apella)
chain: FQESVAFEDVAVYFTQNQWGSLDPAQRALYSEVMLENYANVASLAFPFPKPALISHLEKGEAPWGPDPWDAEIPSGINQGG
Log2 (fold change) [1]: 3.7244

B28: DOMAIN_25807 (protein)
chain: AQAPLSFEDVAVSFSREEWRLLVPAQKDLYRDVMLENYRNLVSVGYQASEPDSLFRLEHGGPLWVVEGAAPRPPCPGEYVA
modifications: Puma concolor
Log2 (fold change) [1]: 3.6511

B29: DOMAIN_25842 (protein, listed as Rhinolophus ferrumequinum)
chain: MLTFRDVFIEFSQEEWECLDPAQRKLYMDVMLESYRNLVSLGHSISKPDVITLLEQGKDPCMVVREETRRWCTGKNKSGRR
Log2 (fold change) [1]: 3.0942

B30: DOMAIN_25844 (protein, listed as Ursus maritimus)
chain: MFSDVSVDFSQEEWECLDPGQRDLYRDVMLENYSNLLSMGLYIPKPQVISLLEQGKEPWMVGRELTRGLCSDLESMCETKL
Log2 (fold change) [1]: 2.5635

B31: DOMAIN_25857 (protein, listed as Balaenoptera acutorostrata)
chain: AHMSLSFRDVAIDLSQEEWECLDPVQRALYRDVMLENYSNLVSLGCSSPKPDVITLLEQEREPWTVMREGTRSWYTDLESK
Log2 (fold change) [1]: 2.898

B32: DOMAIN_25865 (protein, listed as Vombatus ursinus)
chain: FQDSVTFQDVAVTFTPEEWGRLAAPQKELYREVMLENFGHLACLGLALSKPDVICQLERGEAPWMPRGDVPQRPSAAPSGD
Log2 (fold change) [1]: 3.1027

B33: DOMAIN_25869 (protein, listed as Vombatus ursinus)
chain: FQESVTFKDVSVDFTQGEWGQLDPAQKNLYRDVMLENYRTLVSLGLQVFKPEVIYRLERGEAPWILEREISRGPCPDWPET
Log2 (fold change) [1]: 2.3538

B34: DOMAIN_26010 (protein, listed as Geotrypetes seraphini)
chain: QMWVTFEDVAVSFSQEEWVYLDEGQKELYREVMKENYETVMSLAGEEFSRGKEKEGSIEQQSLKTEVHEMNKRVKLFKCSE
Log2 (fold change) [1]: 2.1911

B35: DOMAIN_966 (protein)
chain: MTLLTFRDVAIEFSLEEWKCLDLAQQNLYRDVMLENYRNLFSVGLTVSKPGLITCLEQRKEPWNVKRQEAADGHPGWSAVV
modifications: Pan troglodytes
Log2 (fold change) [2]: 3.3535

B36: DOMAIN_26194 (protein, listed as Geotrypetes seraphini)
chain: QVPVTFEDIAVYFSQEEWEDLEEQQRELYKDVMKENYETLSSLGTGPPAVTPDIISHIERGEEPYIRFESGPEEREIGKSS
Log2 (fold change) [1]: 2.8857

B37: DOMAIN_26211 (protein, listed as Pelodiscus sinensis)
chain: VVELLTFEEVAVYFSKEEWALLDPGQRALYRDVMQENYEAVSWLGFPVSKTDVISWVEREEEFWVPDPRSCEEGVIISNTH
Log2 (fold change) [1]: 2.6058
